Reference: paper PMC4336329 (PLoS ONE, 2015)
In all, about 310,000 compounds went through this assay and about 2,200 (0.71%) showed an effect of 50% or more. The effect is printed as a negative number. The list shows a part of the results.

Molecular target: human ether-à-go-go-related gene (hERG) potassium channel (human, UniProt Q12809)
Assay: primary screen, population patch clamp on CHO cells stably expressing hERG

Sequence of human ether-à-go-go-related gene (hERG) potassium channel (Q12809 whole entry, looked up): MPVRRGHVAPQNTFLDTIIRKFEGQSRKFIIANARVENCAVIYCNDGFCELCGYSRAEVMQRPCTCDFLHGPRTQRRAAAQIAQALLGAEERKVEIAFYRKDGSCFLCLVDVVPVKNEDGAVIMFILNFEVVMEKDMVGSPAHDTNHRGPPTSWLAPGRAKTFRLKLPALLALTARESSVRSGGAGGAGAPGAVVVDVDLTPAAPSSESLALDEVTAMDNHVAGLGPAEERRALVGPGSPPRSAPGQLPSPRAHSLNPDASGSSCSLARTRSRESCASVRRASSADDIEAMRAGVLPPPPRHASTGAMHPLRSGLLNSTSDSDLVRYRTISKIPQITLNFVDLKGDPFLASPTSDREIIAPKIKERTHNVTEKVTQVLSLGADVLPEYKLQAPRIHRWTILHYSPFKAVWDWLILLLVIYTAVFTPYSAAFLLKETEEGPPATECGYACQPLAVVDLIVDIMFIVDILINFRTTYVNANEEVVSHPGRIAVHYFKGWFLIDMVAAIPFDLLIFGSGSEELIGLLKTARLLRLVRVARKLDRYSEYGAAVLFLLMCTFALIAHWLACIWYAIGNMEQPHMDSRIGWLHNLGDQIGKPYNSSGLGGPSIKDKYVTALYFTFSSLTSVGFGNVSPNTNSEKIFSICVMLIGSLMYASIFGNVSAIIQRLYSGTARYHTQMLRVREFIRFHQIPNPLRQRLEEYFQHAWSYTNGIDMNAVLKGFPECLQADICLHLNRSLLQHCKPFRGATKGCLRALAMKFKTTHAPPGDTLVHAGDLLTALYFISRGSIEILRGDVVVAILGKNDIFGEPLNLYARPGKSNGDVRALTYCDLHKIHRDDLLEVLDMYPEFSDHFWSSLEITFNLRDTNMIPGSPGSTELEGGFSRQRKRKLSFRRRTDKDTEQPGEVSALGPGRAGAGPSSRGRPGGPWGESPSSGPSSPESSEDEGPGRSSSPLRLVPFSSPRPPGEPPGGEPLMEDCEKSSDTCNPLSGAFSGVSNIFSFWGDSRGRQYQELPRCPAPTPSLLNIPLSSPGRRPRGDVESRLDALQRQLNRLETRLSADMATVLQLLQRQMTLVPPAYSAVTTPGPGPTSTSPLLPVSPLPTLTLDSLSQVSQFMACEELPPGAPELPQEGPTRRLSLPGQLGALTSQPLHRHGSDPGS

Row | Structure (SMILES) | hERG current change (%, negative = inhibition) at 1uM [%]
1 | NC(=O)C1CCC(NC(=O)OCc2ccccc2)CC1 (stereo not drawn) | 9.33
2 | Cc1ccccc1NC(=O)Cc1cccc(C(F)(F)F)c1 | 0.808
3 | CCNC(=S)N/N=C/c1ccc(C#N)cc1 | 6.88
4 | COCCN1CC(CNC(=O)c2cc(COc3ccc(C)c(C)c3)on2)CC1=O (stereo not drawn) | 2.19
5 | CCN(CC(=O)Nc1ccc(NC(C)=O)cc1)C(=O)c1oc2ccccc2c1C | 0.233
6 | Cc1cccc(C(=O)NCC(=O)NCC(c2ccco2)N2CCCCC2)c1 (stereo not drawn) | 8.09
7 | Cc1ccc(SCC(=O)Nc2ccc3c(c2)OCCO3)cc1 | 10.6
8 | COc1cc(-c2c(C#N)c(N)nc3[nH]c(=S)[nH]c(=O)c23)ccc1O | 12.9
9 | COc1ccc(/C=C/C(=O)C2(O)CCCCC2)cc1OC | 18.8
10 | Cc1ccccc1-n1nc2c(c1NC(=O)/C=C\c1ccc3c(c1)OCO3)CSC2 | 9.93
11 | CCC(C)(C(=O)NC1CCCCC1)N(CC1CCCO1)C(=O)CNC(=O)c1ccccc1 (stereo not drawn) | 9.5
12 | Cc1[nH]c(=O)[nH]c(=O)c1NC(=O)CSc1ncccc1-c1nc2ccccc2[nH]1 | 10.2
13 | CCCCNC(=O)c1cc2c(C)cc(C)cc2[nH]1 | 12
14 | Cn1c(=O)c2c(nc(N3CCNCC3)n2Cc2cccc3ccccc23)n(C)c1=O | 14.7
15 | COC(=O)c1ccc(OC)c(CN2CCCN(Cc3cc(C)ccc3C)S2(=O)=O)c1 | 13.7
16 | COc1cc(C(=O)NNC(=O)c2ccc3ccccc3n2)cc(OC)c1OC | 16.3
17 | O=[N+]([O-])c1cccc2c1ccc1ncccc12 | 11.6
18 | COc1cc(OC)cc(C(=O)N2CCN(C(=O)Cc3ccccc3)CC2)c1 | 8.43
19 | CCOC(=O)c1c(C)[nH]c(C)c1C(=O)COC(=O)c1cccnc1SC | -4.16
20 | Cc1ccc(S(=O)(=O)Nc2ccc(S(=O)(=O)NC(C)(C)C)cc2)cc1 | -4.85
21 | Cc1nc2ccccc2c(=O)n1-c1ccccc1C(F)(F)F | 10.8
22 | COc1cccc(-c2noc(CCCC(=O)Nc3ccc(C(N)=O)cc3)n2)c1 | 9.51
23 | CCn1c(CNC(C)=O)nnc1SCC(=O)c1ccc(Br)cc1 | 11.1
24 | CCCC(=O)NC(=S)Nc1cccc(C(C)=O)c1 | -1.51

Row | Structure (SMILES) | hERG current change (%, negative = inhibition) at 1uM [%]
25 | CCC(C)c1ccc(NC(=S)NN2CCOCC2)cc1 (stereo not drawn) | -1.83
26 | CS(=O)(=O)N1CCC(Oc2ccccc2C(=O)NC2CCOC2)CC1 (stereo not drawn) | 27
27 | Cc1c(CN2CCC(C(=O)Nc3cccc(-c4cccc(Cl)c4)c3)CC2)cnn1C | 0.147
28 | Brc1cccc(OCCn2ccnc2)c1.O=C(O)C(=O)O | 5.76
29 | O=C(Cc1ccc(Cl)cc1)Nc1ccncc1 | 22.8
30 | O=C(O)C(Cc1ccccc1)N1C(=O)/C(=C/c2ccccc2)SC1=S (stereo not drawn) | -0.158
31 | N#CC(C#N)=CC1=C2OC(c3ccccc3)=CC(c3ccccc3)=C2CCC1 | 15.2
32 | CN(C)c1ccc(C2N(C(=O)N3CCOCC3)CCN2S(=O)(=O)c2ccccc2)cc1 (stereo not drawn) | 3.09
33 | CCC(CC)c1nnc(NC(=O)CCc2ccccc2)s1 | 10.3
34 | O=C(c1cnccn1)N(Cc1cccs1)C1(C(=O)NC2CCCC2)CCCCC1 | 2.56
35 | CSc1ccc(CN(C)CC(=O)NCc2ccccc2)cc1 | -11.1
36 | O=C1CC(N2CCN(CCc3ccccn3)CC2)C(=O)N1c1ccc(Cl)cc1 (stereo not drawn) | -46.2
37 | Cc1ncc([N+](=O)[O-])n1CC(=O)Nc1cccc(C(F)(F)F)c1 | 11.1
38 | C/C(=N\O)C(C)(C)Nc1ccc(F)cc1 | 12.7
39 | COc1ccc(OC)c(-c2csc(NC(=O)CSc3nnnn3C)n2)c1 | 6.93
40 | COC(=O)C1NN=C(C(=O)c2ccccc2)C1c1ccccc1 (stereo not drawn) | 14
41 | Cc1ccc2nc(C3CCN(C(=O)NCc4ccccc4)CC3)[nH]c2c1 | -7.07
42 | Cc1cc(N/N=C/c2ccccc2)nc(NCc2ccccc2)n1 | 7.44
43 | C=CCNC(=O)c1ccc(Sc2ccccc2)c([N+](=O)[O-])c1 | 10.6
44 | NS(=O)(=O)c1ccc2nc(NC(=O)CS(=O)(=O)c3ccc(F)cc3)sc2c1 | 16
45 | CCSc1cnn(-c2ccccc2)c(=O)c1Cl | 12.3
46 | CC(Cc1ccccc1)NC(=O)NC(C)Cc1ccccc1 (stereo not drawn) | 12.9
47 | CN1C(=O)/C(=C/c2cccc([N+](=O)[O-])c2)C(=O)N1c1ccccc1 | 12.9
48 | CNC(=O)CSc1nc(SC)ns1 | 15

Row | Structure (SMILES) | hERG current change (%, negative = inhibition) at 1uM [%]
49 | CCOC(=O)N/N=C/c1c(F)c(F)c(F)c(F)c1F | 13.5
50 | Nn1c(=S)[nH]c2sc3c(c2c1=O)CCCC3 | 21.1
51 | CCN1/C(=C/c2cc[n+](CCCS(=O)(=O)[O-])c3ccccc23)Sc2ccccc21 | -1.43
52 | COc1ccc(CC2(CO)CCN(Cc3cc4ccccc4o3)CC2)cc1 | -19.9
53 | O=C(Cc1ccccc1)N/N=C/c1cccnc1 | 17.1
54 | O=C(CSc1nc2ccccc2[nH]1)NCc1ccccc1 | 1.84
55 | CSc1nc2ccc(S(=O)(=O)N3CCCCC3)cc2s1 | 9.18
56 | CCc1ccc(CN(C)CC(=O)Nc2ccc(S(=O)(=O)N3CCOCC3)cc2)cc1 | 13.5
57 | Cc1cc(=O)[nH]c2c1c(C)nn2C1CCCC1 | 3.77
58 | COc1ccc2[nH]c(=O)c(C(=O)O)cc2c1 | 5.38
59 | COc1ccc2nc(/C=N/NC(=O)[C@@H]3CCCN3C(=O)OC(C)(C)C)ccc2c1 | 8.64
60 | COc1ccc(C(=O)OCC(=O)NCCN2C(=O)CSC2=O)cc1 | 2.17
61 | O=C(O)Cn1cnc2scc(-c3cccs3)c2c1=O | 8.35
62 | N#C/C(=C\c1c(N(Cc2ccccc2)Cc2ccccc2)nc2ccccn2c1=O)C(N)=O | 2.75
63 | O=C(Cn1ncc2c(=O)oc3ccccc3c21)N1CCC(N2CCCCC2)CC1 | 5.4
64 | COc1ccc(C(C)NC(=O)c2ccc([N+](=O)[O-])cc2)cc1OC (stereo not drawn) | -5.39
65 | O=C(c1cccs1)N1CCN(c2ccc(Cl)cc2)CC1 | 9.19
66 | COc1ccc(C(=O)COC(=O)CNC(=O)c2ccccc2)cc1F | 4.04
67 | CCC(C)(C)NC(=O)C(c1ccccc1F)N(Cc1ccco1)C(=O)Cn1nnc2ccccc21 (stereo not drawn) | 0.622
68 | Cc1ccc(NS(=O)(=O)c2ccc3c(c2)N(C)CCO3)cc1 | -79.6
69 | O=C(NC1CC1)[C@@H]1CSC2c3ccccc3C(=O)N21 (stereo partly drawn) | 11.4
70 | O=C1CCCC/C1=C\Nc1ccc(S(=O)(=O)Nc2cnc3ccccc3n2)cc1 | 5.23
71 | CCOC(=O)C1(Cc2ccccc2C)CCCN(S(C)(=O)=O)C1 (stereo not drawn) | 15.9
72 | Cc1ccc(OCCSC2=NN2c2cc(C)nc(N)n2)cc1 | -2.37

Row | Structure (SMILES) | hERG current change (%, negative = inhibition) at 1uM [%]
73 | CCCCCCC1CC(CCc2nc(=S)[nH][nH]2)C(=O)O1 (stereo not drawn) | 12.3
74 | COC(=O)c1ccccc1NC(=S)NC(=O)C1CCCCC1 | -1.14
75 | Cc1nnc(-c2ccccc2)o1 | 13.1
76 | CC(=O)Nc1cc(-c2nn(C)c(=O)c3ccccc23)ccc1N1CCOCC1 | 21
77 | C=CCNC(=O)C1CC(=O)N(c2ccc(OCC(=O)Nc3ccc(OC)cc3)cc2)C1 (stereo not drawn) | -7.42
78 | Cc1cc(C)c(C(=O)c2ccc(C(=O)N(C(C)C)C(C)C)cc2)c(C)c1 | -0.334
79 | CC(C)(C)NC(=O)NC(=O)COC(=O)CNC(=O)C1CCCCC1 | 5.39
80 | Cc1ccsc1C(=O)N1CCc2ccccc2C1 | 9.22
81 | CCN1CCN(CC(=O)Nc2cc(C)c(C)cc2[N+](=O)[O-])CC1 | -7.02
82 | Cc1ccc(C(=O)c2ccccc2C(=O)O)c(O)c1 | 6.75
83 | COc1ccc(S(=O)(=O)N2CCC(C(=O)N3CCOCC3)CC2)cc1Cl | 11.5
84 | N#Cc1ccc(C2=CC(=O)C[C@H](c3ccc4c(c3)OCO4)C2)cc1 | -21.5
85 | Nc1cccc2cnccc12 | 18.4
86 | CC(C)CC(NC(=O)C1CCC(C)CC1)C(=O)NCCN1CCOCC1 (stereo not drawn) | 11.4
87 | C[C@@H]1CC=C[C@H]2[C@H]1C(=O)N(Cc1ccccc1)[C@H]2c1ccc(-c2ccc(F)cc2)cc1F | 0.761
88 | Cc1cccc(-c2nc(C#N)c(N3CCC(C)CC3)o2)c1 | 14.2
89 | CCOC(=O)c1ccccc1NC(=O)COC(=O)CCC(=O)c1ccc(C)cc1 | 10.2
90 | Cc1ccc(NC(NC(=O)c2cccs2)C(Cl)(Cl)Cl)cc1 (stereo not drawn) | 13.5
91 | Clc1cccc2sc(N3CCN(c4ccccc4)CC3)nc12 | 7.47
92 | CN=CC1=C(O)c2ccccc2C1=O | 8.27
93 | Cc1ccc(S(=O)(=O)c2cc(OC(=O)c3ccco3)ccc2OC(=O)c2ccco2)cc1 | 9.68
